{"source": "PubChem BioAssay AID662", "about": "(National Center for Advancing Translational Sciences (NCATS), 2007)", "note": "Screen size: about 71,000 compounds; about 1,800 (2.5%) were called active. Inconclusive means that the source gave no clear call. Such entries were picked first, then a sample of the others. Calls come from the whole dose curve; as a rule, active = well fitted activation curve with a large enough effect in the signal ratio, with a control signal flat (not every such curve was filed as active); inconclusive = small, poorly fitted or top-dose-only effect, or effect the other way, or a change in a side signal; inactive = flat fitted curve, though single readings scatter; the % refers to the signal ratio. Potencies beside an inconclusive call are fits to weak or partial responses and may not hold up. Potency is the fitted concentration of half-maximal effect; tags give direction and shape of the fitted curve."}
{"experiment": "Cell signaling CRE-BLA (Fsk stim); for activity change, negative = inhibition: % of control where 0% means no effect", "settings": "CHO CRE-bla reporter (cAMP response element driving beta-lactamase), forskolin EC10, beta-lactamase ratio; activity change, negative = inhibition: at 38.2 µM (top of the series) unless noted", "how_it_was_run": "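CHO CRE-bla cells, overnight plating in Opti-MEM with 0.5% dialyzed FBS; cpd titration + EC10 NKH 477, 3 h 37 °C; CCF4 2 h RT; ex 405/em 460 vs 530 ratio → %Activity, AC50.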"}
{"smiles": "O=C(Oc1cccc(N2C(=O)CCC2=O)c1)C1CC(=O)N(c2ccc(F)cc2)C1", "note": "(stereo not drawn)", "activity change, negative = inhibition": "inconclusive: -19.1%"}
{"smiles": "O=C(CC1Nc2ccccc2NC1=O)c1ccccc1", "note": "(stereo not drawn)", "activity change, negative = inhibition": "inconclusive: 24%"}
{"smiles": "COCCN1C=C(C(=O)OC)C(c2ccc3c(c2)OCO3)C(C(=O)OC)=C1", "activity change, negative = inhibition": "inconclusive: 25.2%"}
{"smiles": "O=C(O)c1ccc2c(c1)nnn2C1CCCCC1", "activity change, negative = inhibition": "inconclusive: -2.02%"}
{"smiles": "N#C/C(=C\\c1ccc(O)c(O)c1)C(=O)NCCc1ccccc1", "activity change, negative = inhibition": "inconclusive: -27.2%"}
{"smiles": "Fc1cccc2sc(Nc3nnc(-c4ccccc4)o3)nc12", "activity change, negative = inhibition": "inconclusive: 6.68%"}
{"smiles": "COC(=O)[C@H](CCSC)NC(=O)Nc1ccc(C)cc1", "activity change, negative = inhibition": "inactive"}
{"smiles": "Cc1nc2c(cc(Oc3ccc(S(=O)(=O)N4CCOCC4)cn3)c3ccsc32)s1", "Potency": "inconclusive: 10 µM [rising, partial curve]"}
{"smiles": "O=C(O)Cc1c[nH]c2ccc(F)cc12", "activity change, negative = inhibition": "inactive: 7.12% [at 7.6 µM]"}
{"smiles": "CN(c1cc(=O)n2ccccc2n1)C1CCCCC1", "Potency": "inconclusive: 2.51 µM [rising, single point]"}
{"smiles": "O=c1cc(-c2ccccc2)[nH]c2nc(Cl)ccc12", "activity change, negative = inhibition": "inconclusive: 3.78% [fluorescent]"}
{"smiles": "COC(=O)c1c(-c2cccnc2)csc1NC(=O)c1cc(C)on1", "Potency": "active: 2.51 µM"}
{"smiles": "CCCCC(=O)Nc1sc2c(c1C(N)=O)CCC2", "activity change, negative = inhibition": "inactive"}
{"smiles": "CCOC(=O)Cc1csc2nc3sc(C)c(C)c3c(=O)n12", "activity change, negative = inhibition": "inactive"}
{"smiles": "CN(C)c1ncc2nc(CCc3ccccc3)c(=O)n(CCc3ccccc3)c2n1", "Potency": "active: 3.98 µM"}
{"smiles": "O=C(O)CCc1nc(-c2ccccc2-n2cccc2)no1", "activity change, negative = inhibition": "inactive: -1.65% [at 7.6 µM]"}
{"smiles": "COC(=O)c1cccc(NC(=O)C2COc3ccccc3O2)c1", "note": "(stereo not drawn)", "activity change, negative = inhibition": "inconclusive: 11.7%"}
{"smiles": "FC(F)(F)c1ccccc1-c1nc(NC2CC2)c2ccccc2n1", "activity change, negative = inhibition": "inactive"}
{"smiles": "CCOc1ncccc1C(=O)Nc1ccc2c(C)cc(=O)oc2c1", "Potency": "inconclusive: 3.16 µM [rising, single point]"}
{"smiles": "CC[C@H](C)[C@@H]1O[C@]2(CC[C@@H]1C)C[C@H]1C[C@H](CC=C(C)[C@@H](O[C@@H]3C[C@H](OC)[C@H](O[C@@H]4C[C@H](OC)[C@H](O)[C@H](C)O4)[C@H](C)O3)[C@@H](C)C=CC=C3CO[C@@H]4[C@@H](O)C(C)=C[C@@H](C(=O)O1)[C@]34O)O2", "activity change, negative = inhibition": "inconclusive: 12.8% [at 17.1 µM]"}
{"smiles": "C=CCNC(=O)c1c(N)n(-c2ccc3c(c2)OCO3)c2nc3ccccc3nc12", "Potency": "active: 1 µM"}
{"smiles": "O=C(Nc1scc(-c2ccc(F)cc2)c1C(=O)O)c1ccco1", "activity change, negative = inhibition": "inactive"}
{"smiles": "COc1ccc(S(=O)(=O)N2CCCC(C(=O)N3CCCCCC3)C2)cc1", "note": "(stereo not drawn)", "activity change, negative = inhibition": "inactive"}
{"smiles": "CCn1c(=O)c(C(=O)Nc2cccnc2)c(O)c2ccccc21", "activity change, negative = inhibition": "inactive"}
{"smiles": "c1ccc(-c2noc(-c3cccnc3)n2)nc1", "activity change, negative = inhibition": "inconclusive: 5.52%"}
{"smiles": "CCOC(=O)CSc1nnc(Cn2nnc(-c3ccccc3)n2)n1C", "activity change, negative = inhibition": "inactive"}
{"smiles": "Cc1nc(C)n(CC(O)COc2ccc(C(=O)c3ccccc3)cc2)n1", "note": "(stereo not drawn)", "activity change, negative = inhibition": "inactive"}
{"smiles": "CCN1c2ccccc2NC2C1C(C(C)=O)C(=O)N2c1ccc(Cl)cc1", "note": "(stereo not drawn)", "activity change, negative = inhibition": "inconclusive: 20.8%"}
{"smiles": "Cc1ccc(-c2nc(CN(C)C)cc(CN(C)C)c2O)cc1", "activity change, negative = inhibition": "inconclusive: 16.7%"}
{"smiles": "Cc1noc(C)c1C(=O)N1CCC2(CC1)CCN(C(c1ccccc1)c1ccccc1)CC2", "activity change, negative = inhibition": "inactive"}
{"smiles": "COCCn1c(=O)c(-c2ccc(OC)cc2)nc2cnc(Nc3cccc(OC)c3)nc21", "Potency": "inconclusive: 1 µM [rising, full curve]"}
{"smiles": "[O-][n+]1onc2c1CCc1c-2nc(-c2ccccc2)n1OCc1ccccc1", "activity change, negative = inhibition": "inactive"}
{"smiles": "CN1CCN(c2ncc3nc(-c4ccccc4)c(=O)n(Cc4cccs4)c3n2)CC1", "Potency": "inconclusive: 2.51 µM [rising, full curve]"}
{"smiles": "Cc1nc2cccc(C(=O)NCc3ccccc3)c2o1", "activity change, negative = inhibition": "inconclusive: 8.82%"}
{"smiles": "CCc1nnc(NC(=O)Nc2ccccc2OC)s1", "activity change, negative = inhibition": "inactive"}
{"smiles": "O=C(CSc1nnc2scc(-c3ccccc3)n12)Nc1nsc(-c2ccc(Cl)cc2)n1", "activity change, negative = inhibition": "inconclusive: 27.3%"}
{"smiles": "COc1ccc(C(=O)Nc2cccc(C(C)=O)c2)cc1S(=O)(=O)N1CCOCC1", "activity change, negative = inhibition": "inconclusive: 7.36% [at 7.6 µM]"}
{"smiles": "CCOC(=O)C1CCCN(C(=O)Cc2c(F)cccc2Cl)C1", "note": "(stereo not drawn)", "activity change, negative = inhibition": "inconclusive: -3.09%"}
{"smiles": "O=C(Cc1ccccc1)Nc1cccc(-c2nc3ncccc3o2)c1", "activity change, negative = inhibition": "inactive"}
{"smiles": "CSc1nsc(SCC(=O)N2CCN(c3ccccc3)CC2)n1", "activity change, negative = inhibition": "inconclusive: 3.53%"}
{"smiles": "CCNc1ncc2nc(-c3cccs3)c(=O)n(CCC#N)c2n1", "Potency": "inconclusive: 5.01 µM [rising, partial curve]"}
{"smiles": "Cc1nc2oc3c(NCC4CCCO4)ncnc3c2c2c1COC(C)(C)C2", "note": "(stereo not drawn)", "Potency": "inconclusive: 10 µM [rising, partial curve]"}
{"smiles": "O=C(NCc1ccccn1)C1CCN(S(=O)(=O)N2CCCC2)CC1", "activity change, negative = inhibition": "inconclusive: -0.912%"}
{"smiles": "CCOC(=O)N1CCC(NC(=O)C2CCN(S(=O)(=O)c3cccs3)CC2)CC1", "activity change, negative = inhibition": "inconclusive: -6.33%"}
{"smiles": "Cc1onc(-c2ccccc2)c1C(=O)Nc1sc2c(c1C(N)=O)CCC2", "Potency": "inconclusive: 10 µM [rising, partial curve]"}
{"smiles": "Cc1ccc(NC(=O)Cn2c(=O)n(Cc3ccco3)c(=N)c3c4c(sc32)COC(C)(C)C4)cc1", "activity change, negative = inhibition": "inconclusive: 21.2%"}
{"smiles": "Cc1c(/C(O)=C2\\C(=O)C(=O)N(CCCN(C)C)C2c2ccncc2)cnn1-c1ccccc1", "note": "(stereo not drawn)", "activity change, negative = inhibition": "inconclusive: 17.2%"}
{"smiles": "CCN=C1Cn2c(nc3scc(-c4ccccc4)c3c2=O)CN1CC", "activity change, negative = inhibition": "inactive"}
{"smiles": "O=P(c1ccccc1)(c1ccccc1)C(c1ccco1)N1CCOCC1", "note": "(stereo not drawn)", "activity change, negative = inhibition": "inconclusive: 1.88%"}
{"smiles": "Cn1nnc2cc(NC(=O)N3CCN(c4ccccn4)CC3)ccc21", "activity change, negative = inhibition": "inconclusive: 25.9%"}
{"smiles": "O=C(C1CCCN(S(=O)(=O)c2cccnc2)C1)N1CCn2c1nc1ccccc12", "note": "(stereo not drawn)", "activity change, negative = inhibition": "inactive"}
{"smiles": "Cc1nc(CSc2nnc3scc(-c4ccc(Cl)cc4)n23)cs1", "Potency": "inconclusive: 10 µM [rising, partial curve]"}
{"smiles": "COc1cccc(C2=CC(c3ccc(C)cc3)n3ncnc3N2)c1", "note": "(stereo not drawn)", "Potency": "inconclusive: 12.6 µM [falling, partial curve]"}
